Measurements from PubChem BioAssay AID485344 (National Center for Advancing Translational Sciences (NCATS), 2010).
Screen size: about 340,000 compounds; about 6,900 (2%) were called active. Cut-off read from the data, not from the text of the source: active = inhibition above about 30%; inactive = below that, where a call was filed. This is a selection; strong and weak results do not stand in their true shares. The source gives no active or inactive call for entries shown without one.
Note: 0% is about no effect.

These molecules were tested against D(2) dopamine receptor (Homo sapiens) (UniProt P14416) (assay: HTS Assay for Allosteric Antagonists of the Human D2 Dopamine Receptor: Primary Screen for Antagonists). Conditions: HEK293 TREx D2 cells, calcium flux, dopamine EC80; at 10 µM; stronger effect = higher value.
Chain of UniProt P14416 (P14416 whole entry, looked up): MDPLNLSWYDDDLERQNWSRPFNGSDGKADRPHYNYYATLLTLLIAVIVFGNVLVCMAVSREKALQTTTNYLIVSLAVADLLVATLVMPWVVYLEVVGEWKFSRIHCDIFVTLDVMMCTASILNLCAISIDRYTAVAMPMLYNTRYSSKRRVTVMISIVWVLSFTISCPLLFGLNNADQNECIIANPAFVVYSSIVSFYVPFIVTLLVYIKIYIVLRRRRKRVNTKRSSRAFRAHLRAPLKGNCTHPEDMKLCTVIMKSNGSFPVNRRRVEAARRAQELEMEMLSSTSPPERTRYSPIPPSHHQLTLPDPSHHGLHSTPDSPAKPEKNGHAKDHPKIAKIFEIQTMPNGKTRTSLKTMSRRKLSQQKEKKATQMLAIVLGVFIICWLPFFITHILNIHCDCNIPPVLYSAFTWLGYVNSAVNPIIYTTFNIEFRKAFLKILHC
Summary of the method: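 Dopamine at EC80 is the agonist stimulus; test compounds precede it by 180 s. Calcium flux read kinetically in a force-coupled, inducible HEK293 T-REx D2 cell line.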
With `COc1cccc(Nc2nc3ccc(C)cc3nc2-n2nc(C)cc2C)c1` the inhibition was 5.85%. With `Cc1ccc(NC(=O)C2=CC(c3ccc4c(c3)OCO4)=NS(=O)(=O)N2C)cc1` the inhibition was 0.457%. In the case of `CCOC(=O)c1c(S(=O)(=O)NCC2CCN(CCc3cccs3)CC2)c(C)n(C)c1C`, the inhibition is reported as active: 43.2%. `CCc1ccc(-n2c(=O)c3cccnc3n2CC(=O)NCc2ccc(C)cc2)cc1` gave an inhibition of 7.85%. `Cc1ccc(NC(=O)Cn2c(=O)n(Cc3nc(-c4ccccc4)no3)c(=O)c3cc4c(cc32)OCO4)c(C)c1` showed an inhibition of -5.6%. For `Nc1cc2c(cc1[N+](=O)[O-])OCCO2`, the inhibition was active: 47.2%. In the case of `COc1ccc(CN2CCN(c3ccccn3)CC2)c(OC)c1`, the inhibition is reported as active: 82.9%. Work on `CCCCOC(=O)c1ccc(NC(=O)c2cnc3ccc(C)cn3c2=O)cc1` yielded an inhibition of 11.9%. Molecule `CCn1c(=O)cc(OCC(=O)N2CCN(c3ccc(F)cc3)CC2)c2ccccc21` has an inhibition of -1.78%. `CCN(c1cccc(C)c1)c1ncnc2c1cnn2-c1cccc(Cl)c1` was tested, and the inhibition was -12.1%. In the case of `COc1ccc(CN2COc3ccc4c(-c5ccccc5)cc(=O)oc4c3C2)cc1OC`, the inhibition is reported as -7.27%. Work on `Cc1nn(C(=O)c2ccc(Br)cc2)c(C)c1Sc1ccccc1` yielded an inhibition of -8.42%. In the case of `COc1cc(OC)c(N(C)C(=O)c2sc3nc4n(c(=O)c3c2C)CCCC4)cc1Cl`, the inhibition is reported as -14.9%. `Cn1c(=O)n(CCCc2ccccc2)c(=O)c2c1nc1n2CCN1c1ccc(F)cc1` showed an inhibition of 11.9%. In the case of `O=C(c1cc(-c2ccc(O)cc2)on1)N1CCN(c2ccccc2)CC1`, the inhibition is reported as -5.66%. In the case of `CSc1nc2sc3c(c2c(=O)n1-c1ccccc1)CCC(C(C)(C)C)C3` (centres undefined), the inhibition is reported as -0.617%. Molecule `Cc1cc(C)cc(NC(=O)CCCc2nc(-c3ccccc3Cl)no2)c1` has an inhibition of 6.92%. With `Clc1cccc(Cl)c1OCCOCCNCc1ccccc1` the inhibition was active: 53%. `CCc1ccc(NC(=O)Cn2cc(S(=O)(=O)N3CCCC3)c(S(=O)(=O)N3CCCC3)c2)cc1` was tested, and the inhibition was -9.86%. In the case of `O=C(NC1CC(=O)N(c2ccc(F)cc2)C1)C1CC1` (centres undefined), the inhibition is reported as -2.38%. In the case of `CC(C)NC(=O)CCN1C(=O)c2ccccc2Sc2ncccc21`, the inhibition is reported as -9.83%. Work on `COc1ccc2oc(=O)c(-c3nc(-c4cccs4)no3)cc2c1` yielded an inhibition of -3.77%. `Cc1ccc(NC(=O)Cn2nnc(C(=O)NCc3ccc4c(c3)OCO4)c2N)cc1Cl` gave an inhibition of 2.21%. In the case of `COc1ccc(-c2nn(-c3cccc(F)c3)c3c2cnc2cc(OC)c(OC)cc23)cc1`, the inhibition is reported as -4.17%. `COc1ccc2[nH]cc(S(=O)(=O)c3ccc(C)c(C)c3)c(=O)c2c1` was tested, and the inhibition was 19.4%. Molecule `COc1ccc(Cn2c(=O)[nH]c3cc(C(=O)N4CCN(c5cc(Cl)ccc5C)CC4)ccc3c2=O)cc1` has an inhibition of 2.55%. For `Nc1ccc(/C=C/C(=O)c2cccs2)cc1`, the inhibition was active: 59.6%. With `O=C(Nc1nnc(SCc2cc(=O)n3cc(Cl)ccc3n2)s1)c1cccc(F)c1` the inhibition was 2.24%. `O=C(c1ccc2c(Cl)c3c(nc2c1)CCCC3)N1CCN(c2ccccc2F)CC1` was tested, and the inhibition was 4.21%. Work on `CCC(C(=O)N1CCN(c2ccccc2)CC1)n1nc(C)c2sc3ccccc3c2c1=O` (centres undefined) yielded an inhibition of -18.9%. `Cc1ccccc1NC(=O)c1cnc2sc(N3CCCC3)nn2c1=O` gave an inhibition of 3.54%. For `COc1ccc(N2CC(NC(=O)c3c(F)cccc3Cl)CC2=O)cc1OC` (centres undefined), the inhibition was 0.272%. `CCOc1ccc(N2CC(c3nc4ccccc4n3CCOc3ccc(CC)cc3)CC2=O)cc1` (centres undefined) gave an inhibition of -4.86%. In the case of `COCCCNS(=O)(=O)c1ccc2c(c1)OCCO2`, the inhibition is reported as active: 34.4%. `O=C(CSc1nc2ccccc2n1Cc1c(F)cccc1Cl)N1CCN(c2ccc(F)cc2)CC1` showed an inhibition of 5.67%. In the case of `CCNCCC(=O)N1c2ccccc2Sc2ccc(C(F)(F)F)cc21`, the inhibition is reported as active: 72.6%. With `O=C(CSc1nc2ccsc2c(=O)n1Cc1ccccc1Cl)NCc1ccc(Cl)cc1` the inhibition was 5.08%. `CCOc1cc(CNC(=O)c2ccc3nc(CCc4ccccc4)oc3c2)ccc1OC` was tested, and the inhibition was -25.8%. `Cc1ccc(S(=O)(=O)NCCc2csc3nc(-c4ccccc4C)nn23)cc1` was tested, and the inhibition was 7.62%. In the case of `Cc1ccc(CNC(=O)C(C)n2ccc3cc(S(=O)(=O)N4CCCC4)ccc32)cc1` (centres undefined), the inhibition is reported as 0.94%. `Cc1ccc(CCNC(=O)c2ccc(NC(=O)N3CCSc4ccccc43)cc2)cc1` showed an inhibition of -11.5%. `CCOc1ccc2c(c1)c(=O)c(C(=O)c1ccc(CC)cc1)cn2CC(=O)Nc1ccccc1C` was tested, and the inhibition was 21.7%. In the case of `COc1ccc(N2CCN(c3cc(C)nc4nncn34)CC2)cc1`, the inhibition is reported as -10.9%. With `O=C(NC1CCN(Cc2ccccc2)CC1)C12CC3CC(CC(C3)C1)C2` the inhibition was active: 32%. Molecule `CCOC(=O)c1c(S(=O)(=O)N2CCC(C(=O)Nc3cccc(C)n3)CC2)c(C)n(C)c1C` has an inhibition of -16.1%. `CCCN(C(=O)c1cc2c(=O)oc3ccccc3c2s1)c1ccccc1C` gave an inhibition of -24.1%. In the case of `CCC(C)NC(=O)Cn1c(=O)ccc2cc(S(=O)(=O)N3CCCC3)ccc21` (centres undefined), the inhibition is reported as 13.7%. With `COc1ccc(/C=N\NC(=O)CCN2CCN(c3ccccc3)CC2)cc1OC` the inhibition was active: 56.4%. Molecule `COCC(=O)N1c2nc(-c3ccco3)nn2C2(CCCCC2)[C@@H]2CCCC[C@@H]21` has an inhibition of 12.9%. Work on `Cc1ccc(NC(=O)Cn2nnc(C(=O)NCCc3ccccc3)c2N)cc1Cl` yielded an inhibition of 10.2%. For `CCOc1ccccc1NC(=O)c1ccc(CN2CCc3ccccc3C2)cc1`, the inhibition was active: 53.6%. With `C=CCc1ccccc1OCC(O)CN1CCN(c2ccccc2F)CC1` (centres undefined) the inhibition was active: 65.5%. `COc1ccc(NC(=O)Cc2noc3ccc(C)cc23)cc1Cl` was tested, and the inhibition was -2.64%. In the case of `COc1cccc(N2CC(NC(=O)C3CC3)CC2=O)c1` (centres undefined), the inhibition is reported as 18.3%. With `CCOc1ccccc1NC(=O)CN1C=NS(=O)(=O)c2ccccc21` the inhibition was 3.12%. `Cc1ccc(CCNC(=O)c2ccc(CS(=O)(=O)Cc3ccccc3F)o2)cc1` gave an inhibition of 5.44%. With `Cc1ccc(C(=O)Nc2ccc3nc(N4CCCCC4)cc(C)c3c2)cc1F` the inhibition was -19.6%. `COc1cccc2cc(-c3nc(-c4ccc(C)cc4)c(C)s3)c(=O)oc12` showed an inhibition of -1.08%. With `Cc1ccc(NC(=O)CCNS(=O)(=O)c2ccc3c(c2)CCCC(=O)N3)cc1` the inhibition was -5.99%. `CC(=O)c1ccc(N2C(=O)N(Cc3cc(C)ccc3C)c3ccccc3S2(=O)=O)cc1` was tested, and the inhibition was 19.8%. In the case of `Cc1cc(Nc2ccc(F)cc2)nc(-n2nc(C)cc2C)n1`, the inhibition is reported as 16.8%. For `O=S(=O)(Nc1ccc(Cl)cc1)c1cccc(S(=O)(=O)c2ccc(Cl)c(Cl)c2)c1`, the inhibition was -7.49%. In the case of `OC(COCc1ccco1)CN1CCN(c2ccccc2)CC1` (centres undefined), the inhibition is reported as active: 74.4%. Work on `Cc1ccc(C)c(N2CCN(CCCNC(=O)Nc3ccc(Cl)cc3)CC2)c1` yielded an inhibition of 8%. Molecule `Cc1cccc(NC(=O)C2CCCN(c3nc4ccccc4s3)C2)c1C` (centres undefined) has an inhibition of 21.6%. `CCOC(=O)C1CCCN(C(=O)Cn2nc(CC)n3c(cc4occc43)c2=O)C1` (centres undefined) gave an inhibition of 0.31%. `COc1ccccc1N1CCN(CC(O)COc2ccc(C)cc2C(C)(C)C)CC1` (centres undefined) showed an inhibition of -28.3%. Work on `CCOC(=O)c1c(C)oc2nc(C)nc(NCC3CCN(Cc4cccc(Cl)c4)CC3)c12` yielded an inhibition of -0.83%. Work on `CCCCN(C)C(=O)Cn1c(SCC(=O)Nc2ccc(C)c(C)c2)nc2ccccc21` yielded an inhibition of 7.45%. `Cc1nc2ccccc2n1CCc1nc2c3ccccc3nc(SCc3ccc(F)cc3)n2n1` showed an inhibition of 26.8%. Molecule `Cc1cccc(Nc2c3c(nc4nncn24)CCC3)c1C` has an inhibition of 4.56%. `COc1ccc2c(c1)c1c(c(=O)n(-c3ccccc3C)c(=O)n1Cc1c(F)cccc1Cl)n2C` was tested, and the inhibition was -3.55%. With `Cc1cc(C)c(OCC(=O)N(Cc2cccc(F)c2)Cc2ccco2)c(C)c1` the inhibition was 2.63%. In the case of `CC(=O)N1CCc2cc(S(=O)(=O)NC(Cc3ccccc3)C(=O)Nc3ccc(Cl)cc3)ccc21` (centres undefined), the inhibition is reported as -0.0478%. `CCc1nn(CC(=O)N2CCN(c3cccc(C(F)(F)F)c3)CC2)c(=O)c2cccn12` showed an inhibition of 18.5%. Molecule `Cc1cccc(NC(=O)Cn2c(=O)oc3cc(S(=O)(=O)NC4CCCC4)ccc32)c1` has an inhibition of -10.5%. For `CCOC(=O)c1ccc(NS(=O)(=O)c2ccc3[nH]c4c(c3c2)CCCCC4)cc1`, the inhibition was -1.22%. With `Fc1ccc(CNCc2ccc(Br)cc2)cc1` the inhibition was active: 48.7%. `Nc1ccccc1SCc1ccccc1` was tested, and the inhibition was active: 30.7%. Molecule `CC(=O)N1CCCc2cc(S(=O)(=O)Nc3ccc(C)c(F)c3)ccc21` has an inhibition of -0.922%. `Cc1oc2c(c(C)cc3oc(=O)c(CC(=O)NCc4ccc(F)cc4)c(C)c32)c1C` showed an inhibition of -4.52%. With `COc1ccc(C2C(=O)N(C3CCC(C)CC3)CC(=O)N2CCC2=CCCCC2)cc1OC` (centres undefined) the inhibition was 9.22%. `Cc1cccc(C)c1NC(=O)CN1C(=O)c2cccc3cccc1c23` was tested, and the inhibition was 16.2%. `CCOc1ccc(NC(=O)CN2C(=O)C3(SCC(=O)N3c3ccc(F)cc3)c3ccccc32)cc1` (centres undefined) gave an inhibition of -0.1%. `COc1ccc(CNc2oc(-c3ccc(COc4ccc(OC)cc4)o3)nc2C#N)cc1` gave an inhibition of 13.1%. In the case of `CCc1ccc2nc(N3CCN(C(=O)C4CC4)CC3)sc2c1`, the inhibition is reported as -25.8%. For `CCOc1ccccc1NC(=O)Cn1c2ncccc2c(=O)n1-c1ccc(C)c(C)c1`, the inhibition was -2.5%. With `Cc1oc(-c2ccc(C(=O)Nc3ccccc3F)cc2)nc1COc1ccccc1` the inhibition was -5.86%. In the case of `CCN1C(=O)C(Cc2nc3ccccc3c(=O)n2-c2ccccc2)c2cc(Br)ccc21` (centres undefined), the inhibition is reported as 5%. Work on `COc1ccc(C)cc1NC(=O)CSc1nc(=O)n(Cc2ccccn2)c2c1CCC2` yielded an inhibition of 19.2%. With `N#Cc1ccccc1NC(=O)c1cnc(N2CCOCC2)c2ccccc12` the inhibition was -16.8%. For `CCc1ccc(N(C)S(=O)(=O)c2ccc3[nH]cc(C(=O)NCC4CCCO4)c(=O)c3c2)cc1` (centres undefined), the inhibition was -3.16%. `CCC(=O)N1CCc2cc(Br)cc(S(=O)(=O)CCC(=O)NCc3ccc(F)cc3)c21` showed an inhibition of -5.23%. With `CC(=O)N1CCOc2cc(S(=O)(=O)N(C)Cc3ccccc3)c(Cl)cc21` the inhibition was 16.8%. Work on `COc1ccccc1-c1nnc(C2CCN(C(=O)c3ccc(Cl)cc3)CC2)o1` yielded an inhibition of 16.2%. With `Cc1ccc(Cn2c(CNC(=O)c3cccc(C)c3)nc3ccccc32)cc1` the inhibition was -6.83%. Work on `COc1cccc2c1Oc1ncccc1N(C(=O)CCC(=O)NCc1ccc(C)cc1)C2` yielded an inhibition of -9.3%. `Cc1ccc(-n2nc3c(=O)n(CCCC(=O)NCc4ccccc4F)nc(C)c3c2C)cc1` was tested, and the inhibition was 9.09%. `O=C(Nc1c(C(=O)N2CCN(c3ccccc3F)CC2)oc2ccccc12)c1ccccc1F` was tested, and the inhibition was 5.43%.
